In PubChem BioAssay AID686979 (National Center for Advancing Translational Sciences (NCATS), 2013):
Out of some 420,000 compounds screened, about 50,000 (12%) were called active. This list was built around the results that the source calls inconclusive (neither active nor inactive); the mix of calls is not that of the screen. Calls come from the whole dose curve; as a rule, active = well fitted inhibition curve with a large enough effect; inconclusive = small, poorly fitted or top-dose-only effect; inactive = flat fitted curve, though single readings scatter. No potency is given beside an inconclusive call; the fits are too rough.
% is set by controls: 0 for no effect and ±100 for the full control effect; potency is the fitted concentration of half-maximal effect; tags give direction and shape of the fitted curve.

Assay: qHTS for Inhibitors of human tyrosyl-DNA phosphodiesterase 1 (TDP1): qHTS in cells in presence of CPT; note: nearly all actives have a fitted effect of over 55% in size
Details: chicken DT40 Tdp1-/-;hTDP1 cells + 20 nM CPT, ATP luminescence, 48 h; activity change, negative = growth inhibition: at 46.2 µM (top of the series) unless noted
Procedure, shortened: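 Cell growth measured by CellTiter-Glo luminescence after a minimum 48 h, 37 C compound exposure with 20 nM CPT in Tdp1-knockout DT40 cells stably expressing hTDP1, seeded 400/well; qHTS titration format.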
For `CC(Nc1nc(-c2ccc(Cl)cc2)cs1)c1nc2cc(Cl)c(N3CCCCC3)cc2n1CCOCCO` (stereo not given), the Potency was active: 16.4 µM.
For `Cc1ccc(C)c(NC(=O)CN2C(=O)C3(SCC(=O)N3c3ccc(C)c(C)c3)c3ccccc32)c1` (stereo not given), the Potency was inconclusive [inhibitor, single point].
With `Cn1cccc1CNC(=S)Nc1ccccc1Cl` the “activity change, negative = growth inhibition” value was inactive: -1.89%.
For `CC(C)(C)C1CCc2c(sc(NC(=O)c3ccco3)c2C(N)=O)C1` (stereo not given), the Potency was inconclusive [inhibitor, single point].
In the case of `COc1cc(F)cc(-c2ccc3c(c2)c(C#Cc2ccsc2)c(-c2cc(OC)cc(OC)c2)n3C)c1`, the Potency is reported as inconclusive [inhibitor, full curve, poor fit].
In the case of `CCN(CC)S(=O)(=O)c1cc(NS(=O)(=O)c2cccs2)ccc1C`, the “activity change, negative = growth inhibition” value is reported as inactive: -22.7%.
In the case of `CCCCOc1ccc(C(=O)Nc2ccc(S(=O)(=O)Nc3nc(C)cc(C)n3)cc2)cc1`, the Potency is reported as inconclusive [inhibitor, single point].
In the case of `O=C(NC1(O)C(=O)c2ccccc2C1=O)c1ccc(C(F)(F)F)cc1`, the Potency is reported as inconclusive [inhibitor, single point].
For `COC(=O)/C=C/c1oc2ccccc2c1C`, the “activity change, negative = growth inhibition” value was inactive: -14.9%.
For `COc1ccc(-n2cnc3c(sc4nc(N5CCOCC5)c5c(c43)CCCC5)c2=O)cc1`, the Potency was active: 18.4 µM.
For `COCCn1c(SCC(=O)Nc2ccccc2)nnc1-c1ccoc1C`, the “activity change, negative = growth inhibition” value was inactive: 23%.
For `COc1cc(NS(=O)(=O)c2c(C)[nH]c(C)c2C(=O)N2CCCCC2)cc(OC)c1OC`, the “activity change, negative = growth inhibition” value was inactive: -13.1%.
With `Nn1c(SCC(=O)Nc2ccc(F)cc2)nnc1-c1cccnc1` the “activity change, negative = growth inhibition” value was inactive: -4.39%.
With `CCOC(=O)N1CCN(C(=O)CSc2ccc(-c3ccc(OC)c(OC)c3)nn2)CC1` the Potency was inconclusive [inhibitor, single point].
For `Cc1cc(N2CCOCC2)nc2ccc(NC(=O)CCC(=O)N3CCN(c4ccccc4F)CC3)cc12`, the Potency was inconclusive [inhibitor, single point].
In the case of `CC(C)C[C@H](NC(=O)c1nc[nH]c1C(=O)N1CCc2ccccc2C1)C(=O)OC(C)(C)C`, the Potency is reported as inconclusive [inhibitor, single point].
With `COc1cc(C)ccc1OCc1cc(C(=O)NC(C)Cn2cncn2)no1` (stereo not given) the “activity change, negative = growth inhibition” value was inactive: -0.792%.
In the case of `COC(=O)c1ccccc1NC(=O)c1cc(-c2ccc(Cl)cc2)on1`, the “activity change, negative = growth inhibition” value is reported as inactive: -15.5%.
With `CCOC(=O)C1(CCc2ccccc2)CCN(C2Cc3ccccc3C2)CC1` the Potency was inconclusive [inhibitor, single point].
With `COc1ccc(OC)c(Nc2nc(C)nc3c2oc2ccccc23)c1` the Potency was active: 23.1 µM.
In the case of `O=C(CSc1nnc(-c2ccc(O)cc2)n1Cc1ccco1)c1cccs1`, the Potency is reported as inconclusive [inhibitor, single point].
For `N#Cc1ccccc1S(=O)(=O)N1CCN(C(=O)CN2CCCC2c2cccs2)CC1` (stereo not given), the Potency was inconclusive [inhibitor, single point].
For `O=C(CNc1ccccc1)N/N=C/c1cc([N+](=O)[O-])ccc1N1CCCC1`, the Potency was inconclusive [inhibitor, partial curve].
For `CC1(c2ccccc2)NC(=O)N(CC(=O)NCC2CCCO2)C1=O` (stereo not given), the “activity change, negative = growth inhibition” value was inactive: -1.1%.
With `Cc1ccc(C(=O)N(CN2CCCC2=O)c2ccc(F)cc2)cc1` the activity change, negative = growth inhibition was inconclusive: -34.2% [inhibitor].
With `CCOC(=O)C1CCN(C(=O)c2sc3nc(-c4ccc(F)cc4)cn3c2C)CC1` the “activity change, negative = growth inhibition” value was inactive: -29.9%.
With `COc1ncc2nc(-c3cn(C)c4ccccc34)c(=O)n(CCC#N)c2n1` the “activity change, negative = growth inhibition” value was inactive: -10.9%.
With `COc1ccccc1C(=O)NCCn1cc(SCC(=O)Nc2nnc(C)s2)c2ccccc21` the activity change, negative = growth inhibition was inconclusive: -30.9% [inhibitor].
In the case of `Oc1[nH]c2ccccc2c1N=Nc1c(F)c(F)c(F)c(F)c1F`, the Potency is reported as active: 8.2 µM.
For `CCC(C)(C)n1nnnc1C(c1ccc(OC)c(OC)c1)N1CCN(C(=O)c2ccco2)CC1` (stereo not given), the “activity change, negative = growth inhibition” value was inactive: 1.48%.
In the case of `O=C(Cc1nc2ccccc2[nH]1)c1cccc([N+](=O)[O-])c1`, the Potency is reported as active: 2.91 µM.
In the case of `CCCS(=O)(=O)NC(=O)C1(C)CCCN(C(=O)COCc2ccccc2)C1` (stereo not given), the “activity change, negative = growth inhibition” value is reported as inactive: -6.32%.
In the case of `O=C(NC(=S)Nc1ccccc1N1CCCC1)c1cccs1`, the Potency is reported as active: 16.4 µM.
In the case of `OC(COc1ccc2c(c1)OCO2)CN1CCc2ccccc2C1` (stereo not given), the Potency is reported as inconclusive [inhibitor, partial curve, poor fit].
For `CCc1ccc2ncc(S(=O)(=O)c3ccc(Cl)cc3)c(N3CCN(CC)CC3)c2c1`, the Potency was inconclusive [inhibitor, single point].
With `O=C(O)CC1(CC(=O)Nc2ccc3c(c2)C(=O)OC3)CCCCC1` the “activity change, negative = growth inhibition” value was inactive: 0.419%.
In the case of `COc1ccccc1NC(=S)NN=C(C)c1ccccn1`, the Potency is reported as active: 0.013 µM.
With `O=C(Nc1cccc2c1CCCC2)c1cc([N+](=O)[O-])ccc1Cl` the Potency was inconclusive [inhibitor, single point].
In the case of `CCN(CC)C(=O)C(=O)c1cn(CC(=O)N2CCc3ccccc3C2)c2ccccc12`, the Potency is reported as inconclusive [inhibitor, single point].
For `CCCCSc1cc(=O)n(-c2ccccc2)nc1C(=O)OCC`, the “activity change, negative = growth inhibition” value was inactive: -16.3%.
In the case of `Cc1cc(S(=O)(=O)N2CCN(c3ccc(F)cc3)CC2)c(C)s1`, the Potency is reported as inconclusive [inhibitor, single point].
For `COc1ccc(C2/C(=C(/O)c3ccc(Br)cc3)C(=O)C(=O)N2C)cc1` (stereo not given), the “activity change, negative = growth inhibition” value was inactive: 14.5%.
For `Cc1nc2ccccc2n1CCc1nc2c3ccccc3nc(SCC(=O)Nc3cccc(C(F)(F)F)c3)n2n1`, the Potency was inconclusive [inhibitor, single point].
For `COC(=O)c1c(NC(NC(=O)c2ccccc2)(C(F)(F)F)C(F)(F)F)sc2c1CCN(C)C2`, the Potency was inconclusive [inhibitor, single point].
In the case of `Cc1cccc(OCCn2nnc3ccccc32)c1C`, the Potency is reported as inconclusive [inhibitor, single point].
For `COCCNC(=O)/C(C#N)=C/c1cccc(OCc2ccccc2)c1`, the Potency was inconclusive [inhibitor, single point].
In the case of `CC1(C(=O)Nc2cccc(NS(C)(=O)=O)c2)CCN1Cc1ccccc1OC(F)F` (stereo not given), the Potency is reported as active: 23.1 µM.
In the case of `O=C(CN(C(=O)CCC(=O)Nc1nccs1)c1ccc2c(c1)OCCO2)NCc1ccco1`, the Potency is reported as inconclusive [inhibitor, single point].
With `CC(C)Oc1ccc(-c2cc(C(=O)NCCN3CCOCC3)c3ccccc3n2)cc1` the Potency was inconclusive [inhibitor, single point].
For `Cc1ccccc1CN1CCN(S(C)(=O)=O)CC1`, the “activity change, negative = growth inhibition” value was inactive: -0.184%.
For `Cc1cc(C)cc(-n2c(=O)c3ccccc3n(CC(=O)NCC3CCCO3)c2=O)c1` (stereo not given), the “activity change, negative = growth inhibition” value was inactive: -18.1%.
In the case of `CCOc1cc(C2NC(=O)NC(C)=C2C(=O)NCc2ccccc2)c(Cl)cc1O` (stereo not given), the “activity change, negative = growth inhibition” value is reported as inactive: -1.15%.
In the case of `CC(C)(C)N(Cc1ccccc1)C(=O)COC(=O)CNC(=O)c1ccco1`, the activity change, negative = growth inhibition is reported as inconclusive: -34.1% [inhibitor].
In the case of `COc1ccc2c(Sc3ccccc3)c(C(=O)NCC(C)c3ccccc3)[nH]c2c1` (stereo not given), the Potency is reported as inconclusive [inhibitor, single point].
With `COc1ccc(S(=O)(=O)N2CCOCC2)cc1NC(=O)CCNC(=O)c1ccc(Br)cc1` the Potency was inconclusive [inhibitor, single point].
With `Cc1ccc(NC(=S)N(CCCN2CCCC(C)C2)Cc2ccco2)cc1C` (stereo not given) the Potency was inconclusive [inhibitor, single point].
In the case of `COc1ccc(C2COc3c(ccc(O)c3OC)C2)c(OC)c1O` (stereo not given), the Potency is reported as inconclusive [inhibitor, single point].
With `O=C(COc1ccc(Cl)cc1Br)N1CCN(c2ncccn2)CC1` the Potency was inconclusive [inhibitor, single point].
With `CC(=O)Nc1ccc(NC(=O)c2ccc(Cl)c(S(=O)(=O)N3CCc4ccccc43)c2)cc1` the Potency was inconclusive [inhibitor, partial curve, poor fit].
With `CCc1ccc(NC(=O)C[n+]2cc(-c3ccc(C)cc3)n3c2CCC3)cc1` the Potency was active: 2.31 µM.
In the case of `COc1cccc(OC)c1CNC(=O)C1CCC(=O)N(CC2CCCCC2)C1` (stereo not given), the Potency is reported as inconclusive [inhibitor, single point].
In the case of `CCc1ccc(NC(=O)CCC(=O)c2ccccc2)cc1`, the “activity change, negative = growth inhibition” value is reported as inactive: -12.8%.
For `O=C1C(Sc2ccccc2)=C[C@@]2(O)CC[C@@H](O)[C@]1(Sc1ccccc1)[C@H]2O`, the Potency was active: 5.17 µM.
With `O=C(C1=COCCO1)N1CCN(S(=O)(=O)c2cccc(Cl)c2Cl)CC1` the Potency was inconclusive [inhibitor, partial curve].
With `O=C(NCCc1ccc(F)cc1)c1cccc2c1C(=O)c1ccc(N3CCC(Cc4ccccc4)CC3)cc1S2(=O)=O` the Potency was inconclusive [inhibitor, partial curve].
With `O=C(CCC1N=C2c3ccccc3N=C(SCc3ccccc3Cl)N2C1=O)NCCc1ccccc1` (stereo not given) the Potency was inconclusive [inhibitor, partial curve, poor fit].
In the case of `Cc1sc2ncnc(SCC(=O)Nc3ccc(CN4CCCC4)cc3)c2c1C`, the Potency is reported as inconclusive [inhibitor, single point].
In the case of `CC(O)C(NS(=O)(=O)c1ccc(Cl)cc1)C(=O)OCCOc1ccc(F)cc1` (stereo not given), the Potency is reported as inconclusive [inhibitor, single point].
In the case of `CCCc1c(C)nc2ccccc2c1SCCC#N`, the Potency is reported as inconclusive [inhibitor, single point].
In the case of `O=S(=O)(Nc1nc2ccccc2nc1Nc1ccc(N2CCOCC2)cc1)c1cc(Cl)ccc1Cl`, the Potency is reported as inconclusive [inhibitor, single point].
